Assay results: PubChem BioAssay AID1159614 (National Center for Advancing Translational Sciences (NCATS), 2016)
Among all 45,000 compounds or so, about 65 (0.1%) were called active. Calls follow the shape of the dose curve; as a rule, active = well fitted activation curve with a large enough effect; inconclusive = small, poorly fitted or top-dose-only effect; inactive = no such curve, though single readings can be large or run the other way. The list shows a part of the results.

These compounds were tested against Galactocerebrosidase (Homo sapiens) (UniProt P54803) (assay: A Novel Cell-Based Assay to Identify Small Molecules for B -Galactocerebrosidase). Conditions: 145M-Twi-hGALC-G270D cells (Twitcher mouse brain line with human GALC G270D), HMU-beta-Gal fluorescence, 48 h; series mostly up to 57.5 µM; activation: at the top concentration.
Method in brief: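 Fluorogenic HMU-b-Gal hydrolysis (0.1 mM final, pH 5.2 citrate-phosphate with 1 mg/mL sodium taurocholate; carbonate stop buffer) measures mutant GALC activity after compound treatment of live 145M-Twi Twitcher brain cells stably carrying human GALC-G270D, with wild-type GALC line alongside; activation sought.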
Also: 0% is about no effect; nearly all actives have a fitted effect of over 65% in size.

UniProt P54803, sequence (P54803 whole entry, looked up): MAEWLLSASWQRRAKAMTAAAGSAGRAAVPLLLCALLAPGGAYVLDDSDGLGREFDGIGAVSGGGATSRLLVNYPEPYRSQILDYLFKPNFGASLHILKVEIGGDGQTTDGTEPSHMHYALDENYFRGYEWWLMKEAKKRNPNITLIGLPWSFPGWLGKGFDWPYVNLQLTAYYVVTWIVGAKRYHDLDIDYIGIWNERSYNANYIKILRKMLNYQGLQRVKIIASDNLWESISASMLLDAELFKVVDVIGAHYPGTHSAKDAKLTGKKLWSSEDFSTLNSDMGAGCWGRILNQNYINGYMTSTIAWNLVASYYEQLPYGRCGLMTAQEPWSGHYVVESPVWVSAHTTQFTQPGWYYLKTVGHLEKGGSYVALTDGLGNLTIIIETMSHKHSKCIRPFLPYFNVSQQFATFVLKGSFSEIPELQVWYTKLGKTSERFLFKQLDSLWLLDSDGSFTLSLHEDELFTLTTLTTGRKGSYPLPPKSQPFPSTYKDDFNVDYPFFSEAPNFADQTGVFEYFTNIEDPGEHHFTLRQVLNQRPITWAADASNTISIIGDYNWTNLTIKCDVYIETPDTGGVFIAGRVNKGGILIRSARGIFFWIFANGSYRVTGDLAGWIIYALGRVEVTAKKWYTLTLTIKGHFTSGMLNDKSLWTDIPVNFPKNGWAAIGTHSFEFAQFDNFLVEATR

| SMILES | activation |
| --- | --- |
| Cc1c(C(=O)OC2CCCCC2)[nH]c2c1C(=O)CC(c1ccccc1)C2 (centres undefined) | inactive: -19.4% |
| Cc1ccc(OCC(=O)N(Cc2ccc(Cl)cc2)CC2CCCO2)cc1C (centres undefined) | inactive: -8.39% |
| COc1ccc(C2C=C(c3ccccc3)Nc3nc(NS(=O)(=O)c4ccc(C)cc4)nn32)cc1 (centres undefined) | inactive: -15.7% |
| O=S(=O)(c1cccc(C(F)(F)F)c1)N1CCC(Oc2ccc(-n3cnnn3)cc2)CC1 | inactive: -15.2% |
| CCC(C)NC(=O)CSc1nc2c(sc3ccccc32)c(=O)n1CCc1ccccc1 (centres undefined) | inactive: 4.89% |
| Cc1ccc2oc(=O)c3cnn(CC(=O)N4CCN(c5cccc(C(F)(F)F)c5)CC4)c3c2c1 | inactive: -9.58% |
| Cc1cc(N2CCN(c3cccc(C(F)(F)F)c3)CC2)n2nc(-c3ccccc3C)nc2n1 | inactive: -9.8% |
| CCN(CC)S(=O)(=O)c1ccc2c(c1)N(CC(=O)NCc1ccc(F)cc1)C(=O)CO2 | inactive: -14.3% |
| CN(C)c1ccc(C2CC(c3c(O)n(C4CCCCC4)c(=O)[nH]c3=O)=Nc3ccccc3S2)cc1 (centres undefined) | inactive: 4.22% |
| CCCN1CCc2nc(SCC(=O)Nc3ccc(C)c(Cl)c3)[nH]c(=O)c2C1 | inactive: -9.96% |
| COc1ccc(NC(=O)C2=C(C)Nc3c(C(=O)Nc4ccc(C)cc4)cnn3C2c2cc(OC)ccc2OC)cc1 (centres undefined) | inactive: 2.57% |
| COc1cccc(NC(=O)Cn2c(=O)n(Cc3ccccc3)c(=O)c3c2c2cc(C)ccc2n3C)c1 | inactive: -2.57% |
| COC(=O)c1ccc(NC(=O)CCn2cccn2)cc1 | inactive: -13% |
| CCOc1ccc(C(=O)N2CCC(c3nc(-c4ccc(S(=O)(=O)N5CCCC5)cc4)no3)CC2)cc1 | inactive: -12% |
| c1ccc(CSc2nnc(C3CCNCC3)o2)cc1 | inactive: -10.6% |
| CCOc1ccc(NC(=O)N(Cc2ccc(CC)cc2)Cc2cn[nH]c2-c2ccc(OC)cc2)cc1 | inactive: -9.43% |
| COc1cccc(Oc2nc3c(c(=O)n(Cc4ccccc4Cl)c(=O)n3C)n2C)c1 | inactive: -24.3% |
| CCOc1ccc(-c2cc3c(=O)n(Cc4nc(-c5ccc(OC)cc5OC)oc4C)ccn3n2)cc1Cl | inactive: 15.3% |
| O=c1[nH]c2ccc(NCc3ccc(-c4ccccc4F)o3)cc2[nH]1 | inactive: -8.36% |
| Cc1ccc(C(C)C)c(OCC(=O)Nc2cccc(-c3nc4ncccc4o3)c2)c1 | inactive: 2.23% |
| CCOc1ccc(Cc2nccc3cc(OCC)c(OCC)cc23)cc1OCC | inactive: -11.8% |
| COc1ccc(C(=O)N2CC(=O)Nc3ccc(C)cc3C2c2ccc(F)cc2)c(OC)c1 (centres undefined) | inactive: -8.92% |
| CC(=O)Nc1ccc(S(=O)(=O)NC2=NCN(C(C)C)CN2)cc1 | inactive: 14.3% |
| COc1ccccc1NC(=O)c1nnn(-c2ccc(F)cc2)c1C | inactive: -3.58% |

| SMILES | activation |
| --- | --- |
| Cc1cc(F)ccc1NC(=O)C(C(C)C)N1Cc2ccccc2C1=O (centres undefined) | inactive: -13.8% |
| COc1ccc(CNC(=O)c2ccc3c(c2)N(Cc2ccccc2)C(=O)c2ccccc2S3=O)cc1 (centres undefined) | inactive: 19% |
| CCC(=O)N1CCc2cc(Br)cc(S(=O)(=O)CCC(=O)NCCc3ccc(C)cc3)c21 | inactive: -7.59% |
| Cc1ccc(Cl)cc1N1CCN(C(=O)Cc2c(C(=O)O)c(C)cn2C)CC1 | inactive: -6.03% |
| Cc1sc2ncn(CC(=O)N3CCN(c4ccccc4F)CC3)c(=O)c2c1S(=O)(=O)N1CCN(c2ncccn2)CC1 | inactive: -11.2% |
| CN(CC(=O)NCc1ccccc1Cl)S(=O)(=O)c1ccc2c(c1)c(=O)n(C)c(=O)n2C | inactive: 5.73% |
| O=c1c(-c2cc(-c3ccc(Cl)cc3)nc3c2COc2ccccc2-3)coc2ccccc12 | inactive: -6.1% |
| Cc1ccc(-c2cc(C(=O)N3CCN(S(=O)(=O)c4ccc(Br)s4)CC3)[nH]n2)cc1C | inactive: -10.6% |
| C#C[C@]1(O)CC[C@H]2[C@@H]3CCC4=Cc5oncc5C[C@]4(C)[C@H]3CC[C@@]21C | inactive: -7.89% |
| CCc1ccc(NC(=O)Cn2c(=O)n(Cc3ccc4c(c3)OCO4)c(=O)c3oc4ccccc4c32)cc1 | inactive: -9.75% |
| Cc1cc(C)n2nc(NCc3ccccc3Cl)nc2n1 | inactive: -7.59% |
| COc1ccc(CNc2nc(-c3ccco3)nn2S(=O)(=O)c2ccc3ccccc3c2)cc1OC | inactive: -16.3% |
| Cc1ccc(C)c(NC(=O)Cn2c(=O)n(Cc3nc(C)no3)c(=O)c3cc4c(cc32)OCO4)c1 | inactive: -2.94% |
| CCOc1ccccc1CN1C(=O)c2ccccc2C1C(=O)NC1CCCCCC1 (centres undefined) | inactive: -30.1% |
| CCC(=O)N1CCc2cc(S(=O)(=O)NC(Cc3ccccc3)C(=O)NCc3ccc(C)cc3)ccc21 (centres undefined) | inactive: -9.44% |
| COc1ccc(OCCn2cc(C(=O)c3ccco3)c3ccccc32)cc1 | inactive: -22.8% |
| COc1cc(C(=O)NCc2nnnn2-c2ccc(C)c(C)c2)cc(OC)c1OC | inactive: -9.68% |
| COC(=O)c1cc2occc2n1Cc1nc(-c2ccccc2C)oc1C | inactive: -6.77% |
| Cc1ccc(-c2noc(CN(C3CCCCC3)S(=O)(=O)c3ccc(F)cc3)n2)cc1 | inactive: -3.85% |
| CC(=O)Nc1ccc(NC(=O)CSc2cn(CC(=O)N(C(C)C)C(C)C)c3ccccc23)cc1 | inactive: -5.99% |
| Cc1cc2oc(C(=O)NCCc3ccc(S(N)(=O)=O)cc3)cc(=O)c2cc1C | inactive: -1.36% |
| O=c1c(-c2cc(-c3ccc(F)cc3)nc3c2COc2ccc(Cl)cc2-3)coc2ccc(F)cc12 | inactive: -24.7% |
| CC(=O)N1c2ccc(S(=O)(=O)N3CCN(c4cc(Cl)ccc4C)CC3)cc2CC1C (centres undefined) | inactive: -6.91% |
| CCC(C)Sc1nc2c([nH]c3ccccc32)c(=O)n1C (centres undefined) | inactive: -10.6% |

| SMILES | activation |
| --- | --- |
| COc1ccc(-c2nc(C)c(CCNC(=O)c3ccco3)s2)cc1 | inactive: -15.9% |
| CC(C)c1ccc(NC(=O)CSC2=Nc3ccccc3C3=NC(CCC(=O)NCc4ccc(F)cc4)C(=O)N23)cc1 (centres undefined) | inactive: -20.2% |
| CCN1CCN(C(=O)c2ccc3c(c2)N(Cc2c(F)cccc2Cl)C(=O)c2ccccc2S3)CC1 | inactive: -22.4% |
| Cc1ccccc1COC(=O)c1ccc(-c2nnn(Cc3ccccc3F)n2)cc1 | inactive: -15.9% |
| COC(=O)c1ccc(CNC(=O)c2nc(Cn3nc(C)c(Br)c3C)no2)cc1 | inactive: -23% |
| O=C(CSc1nc2c([nH]c3ccccc32)c(=O)n1-c1cccc(Cl)c1)NCc1ccccc1 | inactive: 10.6% |
| COc1cc2c(cc1OC)C(COc1cc(C)cc(C)c1)N(C(=O)c1ccc(S(=O)(=O)N3CCCC3)cc1)CC2 (centres undefined) | inactive: -21.5% |
| O=C(CCCCCn1c(=O)[nH]c2ccccc2c1=O)N1CCN(c2ccc(Cl)cc2)CC1 | inactive: -24.5% |
| Cc1ccc(C)c(-c2ccc(=O)n(Cc3ccc(F)cc3Cl)n2)c1 | inactive: 3.28% |
| O=C(COc1ccccc1)Nc1sc2c(c1C(=O)Nc1ccccc1)CCCCC2 | inactive: -15% |
| CCOC(=O)C1CCCN(C(=O)Cn2ncc3c4ccccc4n(Cc4ccc(F)cc4)c3c2=O)C1 (centres undefined) | inactive: -5.89% |
| CCc1nnc(NC(=O)CSc2nc3c([nH]c4ccccc43)c(=O)n2-c2ccc(C)cc2)s1 | inactive: -0.114% |
| CCc1nc2ccc(C(=O)N3CCN(c4cccc(OC)c4)CC3)cc2nc1CC | inactive: -13.9% |
| Cc1ccc2[nH]c(CSc3nnc(NC(=O)COc4ccccc4Cl)s3)cc(=O)c2c1 | inactive: 2.98% |
| CN(Cc1ccccc1)C(=O)Cn1c(=O)c2cccn2c2ccc(F)cc21 | inactive: -2.57% |
| CCOC(=O)CNC(=O)CC(c1cc(OC)c(OC)c(OC)c1)N1Cc2ccccc2C1=O (centres undefined) | inactive: -7.66% |
| CC(=O)SCC(CC(=O)c1ccc(C)cc1)C(=O)O (centres undefined) | inactive: -20.1% |
| CCN(CC)c1ccc(C(=O)Nc2ccc3nc(N(CC)CC)cc(C)c3c2)cc1 | inactive: -1.02% |
| O=S(=O)(NCC(c1ccco1)N1CCOCC1)c1ccc(Cl)cc1 (centres undefined) | inactive: 14.8% |
| Cc1ccccc1NC(=O)C1CCN(S(=O)(=O)c2ccccc2)CC1 | inactive: -5.53% |
| CCc1ccc(NC(=O)C2CCCN(S(=O)(=O)c3cccc4cccnc34)C2)cc1 (centres undefined) | inactive: -21.5% |
| Cc1ccc(CNC(=O)c2sc3ncnc(N(C)C4CCCCC4)c3c2C)cc1 | inactive: 8.21% |
| CC(=O)c1cccc(-n2c(=O)c3c4c(sc3n(CC(=O)c3ccc(Cl)cc3)c2=O)CN(C(C)=O)CC4)c1 | inactive: -6.27% |
| CC1CCCCN1C(=O)CSc1n[nH]c(-c2ccccc2)n1 (centres undefined) | inactive: -13.7% |

| SMILES | activation |
| --- | --- |
| CCOc1cc(C(=O)Nc2ccc(-c3nc4cc(Cl)ccc4o3)cc2)cc(OCC)c1OCC | inactive: -12.9% |
| Cc1cccc(C(=O)N(Cc2ccco2)Cc2ccccc2F)c1 | inactive: 7.8% |
| Cc1ccc(CCNC(=O)C2CC(=O)N(CCc3ccccc3)C2)cc1 (centres undefined) | inactive: -12.5% |
| COc1ccc(CCNC(=O)c2ccc3c(c2)c(C)c(C)n3Cc2ccccc2)c(OC)c1OC | inactive: -12.5% |
| CCc1nn(CCCC(=O)N2CCN(c3ccc(OC)cc3)CC2)c(=O)c2cc3occc3n12 | inactive: -9.24% |
| O=C(Nc1cccc(Cl)c1)c1cc(-c2ccccc2)on1 | inactive: 24.4% |
| O=c1[nH]c(C2CCCN(S(=O)(=O)c3ccccc3Cl)C2)nc2c1nnn2Cc1ccc(OC(F)(F)F)cc1 (centres undefined) | inactive: -13.2% |
| Cn1cc(C(=O)NCCc2ccc(Cl)cc2)c(=O)c2cc(S(=O)(=O)N3CCOCC3)ccc21 | inactive: -12.1% |
| COc1ccc(CNC(=O)CCCc2nnc3n(CCC(C)C)c(=O)c4sccc4n23)cc1 | inactive: -14.2% |
| Cc1cc(CC(=O)O)c(C)n1-c1ccc(Cl)cc1 | inactive: -17.6% |
| O=C(Nc1nnc(S(=O)(=O)N2CCCCCC2)s1)c1cccc(Br)c1 | inactive: -9.14% |
| COc1ccc(NC(=O)C2CCC(CNS(=O)(=O)c3ccc4c(c3)C(C)(C)C(=O)N4C)CC2)cc1 (centres undefined) | inactive: -10% |
| Cc1cccc(N2CCN(C(=O)Cn3ncc4c3-c3ccccc3OC4)CC2)c1C | inactive: -36.7% |
| CCOc1ccc(Nc2ncnc3c2nc2n3CCCCC2)cc1 | inactive: -11.1% |
| COc1ccc(CNCCCSc2nnnn2C)c(OC)c1 | inactive: -5.91% |
| CC(=O)c1ccc(NC(=O)c2nc(-c3ccccc3)n(-c3ccccc3Cl)n2)cc1 | inactive: -18.9% |
| CCc1nnc(SCc2ccc(F)cc2Cl)c2cc3sc(C)cc3n12 | inactive: 8.44% |
| N#Cc1ccccc1Cn1c(SCC(=O)Nc2ccc(F)cc2)nc2ccccc21 | inactive: -11.5% |
| CCOc1ccc(C(=O)Nc2onc3c2CCCC3)cc1 | inactive: -5.85% |
| O=C(COc1ccccc1)Nc1ccc2nc(SCC(=O)N3CCc4ccccc43)sc2c1 | inactive: 1.37% |
| Cn1cnc(S(=O)(=O)N2CCC(C(=O)Nc3ccc(C#N)cc3)CC2)c1 | inactive: -20% |
| Clc1cccc(N2CCN(c3c4c(nc5nncn35)CCC4)CC2)c1 | inactive: -29.5% |
